Some of the results follow.

This assay relates to PfAP2-HC AP2 domain (GST-tagged). Kind of assay: gcPBM binding intensity (ln(normalized median fluorescence intensity)); higher = stronger DNA binding. The procedure, abridged: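 Binding intensity is defined as the maximum Masliner-normalised natural-log median intensity across replicate spots for either probe orientation. It was measured on an Agilent 4 × 180k array of primer-extended double-stranded 36-bp intergenic genomic probes and negative controls, to which GST-tagged P. falciparum DNA-binding domains made in E. coli were applied for 1 h in 1× PBS with 1% milk, 0.2 mg/ml BSA, 0.5% salmon testes DNA and 0.03% Triton X-100. Detection was by Alexa488 anti-GST antibody and scanning at 488 nm.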
Take “TATATATACAGACACATACACACAAATAAAAAAACA [CACACA_site3413]”: the “gcPBM binding intensity (ln)” value worked out at 10.3. The result for “ATATTTAAAAAAGAGTGTACTCATCTCTTTTAAAAA [XGTACX_site1160]” reads 9.32. In the case of “ATGTTGCTCATATGAGTGCACGTTTCATTTCAGTTT [GTGCAC_site9865]”, the “gcPBM binding intensity (ln)” value turned out to be 9.77. Then “AATGTAGGTTTATTTACACACAAATATAGATATATA [CACACA_site6825]”, with 9.89. The result for “GTGTATTTATGTTATACACACAAAAATATTTTGTAT [CACACA_site4305]” reads 9.9; that for “CTATTTCGTATATATAGTACATATTATAACATACTA [XGTACX_site978]”, 9.65; that for AATTTATATAATTTTGTGCACAATATTCATGTATAT, 9.9.

In the case of “ATTTTATTAATTTGGTGTACTTAATTTATATTTTTC [XGTACX_site4947]”, the “gcPBM binding intensity (ln)” value came out at 9.96. “AAAAAAAAAAAATAATAAATAAATAAAAATAAATGA [CACACA_negctrl_site1623]”: the “gcPBM binding intensity (ln)” value came to 9.6. Consider “CCTCCATTAGATACTTGTACATAAAAGTTTTGATTG [XGTACX_site7428]”, for which the “gcPBM binding intensity (ln)” value was 9.47.

With “AGACTTTGTACAAACACACACATGAACACAATATTA [CACACA_site1360]”, the “gcPBM binding intensity (ln)” value worked out at 10.7. The result for “AATCATAAAATCATATGTACACATTTTTCCTATGAT [XGTACX_site8799]” reads 9.8; that for “TATTATATGTAGTTGAGTACATATAAATACATATAT [XGTACX_site7933]”, 9.62; that for “AAATAGTTAAAAAGGCGTACACATAAATAAATAAAT [XGTACX_site2096]”, 10.1. The result for “AATCTAATATAATGCACACATAAAAAAAAATCAAAC [CACACA_site3633]” reads 9.9; that for “GTATATATATATATATATATAATAGTAACTTTTACT [CACACA_negctrl_site608]”, 9.63; that for “TGTAGTCTGGAGAAAAGTACATAGTATCTGGTAACA [XGTACX_site4940]”, 9.47.

Take “TTTTAATTTTAAAAATGTACTTTTATTATTTTTAAT [XGTACX_site8300]”: the “gcPBM binding intensity (ln)” value is 9.53. Then “TAAAAATTAAAATGTTGTACAATGATAAAATATTAT [XGTACX_site7874]”, with 9.76.

With “ATTTATTTATATACAAGTACATAAAAAATTAACTTA [XGTACX_site6170]”, the “gcPBM binding intensity (ln)” value stood at 9.33.

Take “TATTTGATAAAAAAAAGTACTAGAATTTCGCTTTTG [XGTACX_site7754]”: the “gcPBM binding intensity (ln)” value is 9.3.

As to “CTCAACATATACGTAACACACATATAAATATAAATA [CACACA_site7749]”, the “gcPBM binding intensity (ln)” value amounted to 9.89.

As for “TAAATTGAAATATATTGTACATTATCAACTAAGGGA [XGTACX_site1635]”, the “gcPBM binding intensity (ln)” value turned out to be 9.59.

With “AAATTATAAAATAACTGTACCAATCCTTTTTTTTTA [XGTACX_site2229]”, the “gcPBM binding intensity (ln)” value came to 9.51. Then “CATATATACCTATATACACACATATAGATTTATATA [CACACA_site6451]”, with 9.78. In the case of “TTATTCTACATATATGCATGTGTATGATCTGTTTAT [TGCATGCA_site782]”, the “gcPBM binding intensity (ln)” value turned out to be 9.75.

For the sequence “ATATAAATGATATGTACACACATTTATATATATAAA [CACACA_site3475]”, the “gcPBM binding intensity (ln)” value is 9.89. The result for “AAAATAAAAAAAATGTAAAAGGTTAAAGTGAAATAT [CACACA_negctrl_site350]” reads 9.8. The result for “TGATATTATCTCTTCACACACTCACATACAGACAAA [CACACA_site1246]” reads 9.89; that for “TATATTTAATTATTTTGTACTCATATAAAGATGATG [XGTACX_site5488]”, 9.19. Then “AAAAAAAAAATATTTGAACACACGAGGATATATAAA [CACACA_site139]”, with 9.74.

Take “CACACGCACGAACACACACACACACGCACGCACATA [CACACA_site6305]”: the “gcPBM binding intensity (ln)” value was found to be 10.7. As to “TACAGACATACATACACACATACATACAGACATACA [CACACA_site1941]”, the “gcPBM binding intensity (ln)” value stood at 10. The result for “TACATATTTACTATCACACACACGATATAAATAAAT [CACACA_site6701]” reads 10.3. For the sequence “TTATTTTACTTTTATGCAACTAAAAATATTGCTATA [XGTACX_negctrl_site277]”, the “gcPBM binding intensity (ln)” value came to 9.6. Turning to “AATAAAATTTGCGATGCACACAGAATAGCTAATATG [CACACA_site8983]”, the “gcPBM binding intensity (ln)” value was found to be 9.89. The result for “CATATAGATTTGTTCACACACACACTAAAAAAAAAA [CACACA_site7212]” reads 10.3; that for “ATATTCAATTCATACACACACAATTTAAGAATGATA [CACACA_site3883]”, 9.99; that for “ACAAATGTGAGAAAGACACACATATAATAAAAAACA [CACACA_site1156]”, 9.93. With “ATGAATAAAAAAGGTGGTACATATATATATATATAT [XGTACX_site7893]”, the “gcPBM binding intensity (ln)” value turned out to be 9.7. With “ATACATATATAATTATGTACGTATATTTTATATAAC [XGTACX_site4292]”, the “gcPBM binding intensity (ln)” value was 10.

Turning to “AAAATAATATAAATAATATAAGTGAGCATATATATA [TGCATGCA_negctrl_site527]”, the “gcPBM binding intensity (ln)” value came to 9.67.

“TGTCTTGTAAATTATTGTACTATTTAAAGTATAAAA [XGTACX_site7863]”: the “gcPBM binding intensity (ln)” value was 9.18. For the sequence “AAAATACCCGGACACACACACATATATATATATATT [CACACA_site6137]”, the “gcPBM binding intensity (ln)” value was 10.2. The result for “TAACTTCAAACAAAATATGGTAAAAGTGGTTGAAAA [CACACA_negctrl_site42]” reads 9.6; that for “GATGATTCAATTTATGCACACTAAAAATTAATTATA [CACACA_site4308]”, 9.51.

For “CCATAGATATTTTATACACACATATAATATATTAAT [CACACA_site373]”, the “gcPBM binding intensity (ln)” value amounted to 9.79. As to “ACCAAAAGGGGATGTAGTACAATATGATTAGAAGAA [XGTACX_site3773]”, the “gcPBM binding intensity (ln)” value was found to be 9.84. On to “AAATAATATATTCCTTGTACTTATTTCAATGAATTC [XGTACX_site7719]”, for which the “gcPBM binding intensity (ln)” value came to 9.64.

With “ATAATCTGACAAATGTGTACACATATATATATATAT [XGTACX_site2379]”, the “gcPBM binding intensity (ln)” value was determined as 9.89. Take “AAGAATCACCAAATATGTACACACCTTAACATGTTT [XGTACX_site4272]”: the “gcPBM binding intensity (ln)” value was 9.89. Take “CCACTGTATGAATGCACACATTCATAGAATTGCTAT [CACACA_site2676]”: the “gcPBM binding intensity (ln)” value turned out to be 9.91. Take “GATATGATTAACTTATGTTATTCTTGATGGTTTCTT [GTGCAC_negctrl_site411]”: the “gcPBM binding intensity (ln)” value was found to be 9.64. “TAATTTGTTAAAGGTTCACATATGGTATATACTTCT [XGTACX_negctrl_site292]”: the “gcPBM binding intensity (ln)” value came to 9.75. In the case of “TAATAAGGTTACAACAAACACACAAAGGAATATACA [CACACA_site4089]”, the “gcPBM binding intensity (ln)” value was determined as 10.1. Then “TATCACAAAATATACTGTACATACAGGCAGTAATAT [XGTACX_site2487]”, with 9.7.

In the case of “TTATAAAACCATGTCATCAACATAGGCACAAAAATG [CACACA_negctrl_site1160]”, the “gcPBM binding intensity (ln)” value turned out to be 9.63. Then “ATATGTACATATCTCATGCACTTAACAAAAAAAAAG [GTGCAC_site9898]”, with 9.56. Regarding “TATGTATAGATATATACACACTTCTGTGATACGAAA [CACACA_site7003]”, the “gcPBM binding intensity (ln)” value was found to be 9.66. With “TAAAGAGTCATGTGGTGTACCTGCTTCACCACATAT [XGTACX_site1288]”, the “gcPBM binding intensity (ln)” value came to 9.4. Then “TATATATTCATAAAGTGTACATGTTTATATATATAT [XGTACX_site7585]”, with 9.54; and “TTATTTTTAATATCGGTGCAACAAAAAGGAAAAGAT [GTGCAC_site9482]”, with 9.81. As for “ATCTTTATTTTTAGCGCACACATAAAATAATAATAA [CACACA_site3458]”, the “gcPBM binding intensity (ln)” value was determined as 9.83. The result for “CAAAGCATTTTATCTACACACATATATAAATAAATA [CACACA_site7500]” reads 9.77; that for “TATTTTAACTTTTTTTCCTTTATTCATTTTTTTTTC [CACACA_negctrl_site971]”, 9.53. Then “TGATGCAAGATATATACACACATATAAATATAAATA [CACACA_site7429]”, with 9.9; and “TTTTTTTTTTTATGTGCACACAAAAGATGCTTATAT [CACACA_site2347]”, with 9.92. Then “TTATGATAACTTTGCACACACTTAGGAAAAGTTATG [CACACA_site6836]”, with 9.71; and “ATGCATCATTTATTTGCACACCTATTATATACTTTT [CACACA_site2097]”, with 9.95.

Regarding “TATATATATATAATATGTACATATATATATTCTTAA [XGTACX_site6154]”, the “gcPBM binding intensity (ln)” value was determined as 9.49. For “ATAATTCATGTTTAGTGTACAAAAAATTAAAGCAAC [XGTACX_site8891]”, the “gcPBM binding intensity (ln)” value is 9.87. For “AAATAATTTATATGTAGTACATGTTGTAGATAATTT [XGTACX_site1031]”, the “gcPBM binding intensity (ln)” value amounted to 9.78. Take “GATATAGATATTAATTGTACATATTATTTATTGTTA [XGTACX_site846]”: the “gcPBM binding intensity (ln)” value turned out to be 9.69.

On to “TTCTAAAAAGGGTGTACACAAACGAATGGAAAATAA [CACACA_site5483]”, for which the “gcPBM binding intensity (ln)” value was 9.82. Take “ATAATTTTTATTTGTACACACATACAGATATATTAT [CACACA_site4701]”: the “gcPBM binding intensity (ln)” value was determined as 10.

As to “GATATGTACTAATACACACACATATATATATATATA [CACACA_site1022]”, the “gcPBM binding intensity (ln)” value was 10.2. With “TAAAGGTGTAAAACTGCATGCTGGAGAAAAGTAAAA [TGCATGCA_site591]”, the “gcPBM binding intensity (ln)” value worked out at 9.77. The result for “AATAATACGTTAAATGTTCTTACAAGTTGGTTTCAT [CACACA_negctrl_site1029]” reads 9.63; that for “AAAAAAAAATTTGTATCACACACGTATTATAAAAAA [CACACA_site6]”, 9.83.

Turning to “ATTATATAATATAATGCATGTGTTAATGAAAAATCT [TGCATGCA_site426]”, the “gcPBM binding intensity (ln)” value came to 9.69.

As for “AAAAAAAAAAAAAAGTGTACCTTATTATACTTTAAT [XGTACX_site8439]”, the “gcPBM binding intensity (ln)” value came out at 9.52. The result for “CACACTAAAAGACACACACACACACGCATATAAATA [CACACA_site7874]” reads 10.8; that for “AAATATATATATATATGTACACACACACATATAAAT [XGTACX_site847]”, 10.4. For the sequence “TTGTAGGAATTTATTTTGACTGATAATTAATACGTT [GTGCAC_negctrl_site46]”, the “gcPBM binding intensity (ln)” value was 9.47. The result for “ATTAAACATACATATACACACACACCCACCCACCCA [CACACA_site8057]” reads 11; that for “TAGTGTAAAAAATACGCATGTGTACAAATATAATAA [TGCATGCA_site498]”, 10.1; that for “AATTATACTCACGTTACACACACACTATAAATATAT [CACACA_site7863]”, 10.2. Then “AAAAATTTGGCATACACACACACACGCACACGCACA [CACACA_site6422]”, with 10.6.

For the origin of these results see the supplement of paper PMC11417369.
